# Results published in the supplement of paper PMC11876631.
# ± gives the standard deviation of the averaged measurements. Laboratory Escherichia coli strains with one amino-acid change in an essential protein, pooled on minimal glucose agar with carbenicillin or gentamicin at twice the control MIC (plus kanamycin and chloramphenicol for the plasmids), 48 h. Fold change of barcode share against drug-free plates; higher = less susceptible. Active = above 20 in both replicates (the paper's putatively resistant). '<' = one read or none on drug, '>' = one read or none on a drug-free plate. Shares are relative, so most strains fall below 1 when a few take over. Listed are strains with at least 15 reads on both drug-free plates, and hits; most hits rest on fewer reference reads. Replicate rank correlation about 0.5. Edits are read from barcodes.
# Biological target: Escherichia coli (laboratory strain)
# Test: barcode share on antibiotic plates over drug-free plates; higher = less susceptible
# Settings: antibiotic: gentamicin; 2× MIC (MIC 0.45 µg/mL)
# Experimental: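 A pool of E. coli strains, each edited to carry one amino-acid change in an essential protein, was grown for 48 h on minimal glucose agar with or without antibiotic; strain barcodes were sequenced; mean of two replicates.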
row,Protein,fold change of barcode share
1,hemB I309A (protein) MTDLIQRPRRLRKSPALRAMFEETTLSLNDLVLPIFVEEEIDDYKAVEAMPGVMRIPEKHLAREIERIANAGIRSVMTFGISHHTDETGSDAWREDGLVARMSRICKQTVPEMIVMSDTCFCEYTSHGHCGVLCEHGVDNDATLENLGKQAVVAAAAGADFIAPSAAMDGQVQAIRQALDAAGFKDTAIMSYSTKFASSFYGPFREAAGSALKGDRKSYQMNPMNRREAIRESLLDEAQGADCLMVKPAGAYLDIVRELRERTELPIGAYQVSGEYAMIKFAALAGAIDEEKVVLESLGSIKRAGADLAFSYFALDLAEKKILR,0.0405 ± 0.016
2,hemB F310P (protein) MTDLIQRPRRLRKSPALRAMFEETTLSLNDLVLPIFVEEEIDDYKAVEAMPGVMRIPEKHLAREIERIANAGIRSVMTFGISHHTDETGSDAWREDGLVARMSRICKQTVPEMIVMSDTCFCEYTSHGHCGVLCEHGVDNDATLENLGKQAVVAAAAGADFIAPSAAMDGQVQAIRQALDAAGFKDTAIMSYSTKFASSFYGPFREAAGSALKGDRKSYQMNPMNRREAIRESLLDEAQGADCLMVKPAGAYLDIVRELRERTELPIGAYQVSGEYAMIKFAALAGAIDEEKVVLESLGSIKRAGADLIPSYFALDLAEKKILR,0.0474 ± 0.028
3,hemB I309W (protein) MTDLIQRPRRLRKSPALRAMFEETTLSLNDLVLPIFVEEEIDDYKAVEAMPGVMRIPEKHLAREIERIANAGIRSVMTFGISHHTDETGSDAWREDGLVARMSRICKQTVPEMIVMSDTCFCEYTSHGHCGVLCEHGVDNDATLENLGKQAVVAAAAGADFIAPSAAMDGQVQAIRQALDAAGFKDTAIMSYSTKFASSFYGPFREAAGSALKGDRKSYQMNPMNRREAIRESLLDEAQGADCLMVKPAGAYLDIVRELRERTELPIGAYQVSGEYAMIKFAALAGAIDEEKVVLESLGSIKRAGADLWFSYFALDLAEKKILR,0.368 ± 0.14
4,hemB F310Q (protein) MTDLIQRPRRLRKSPALRAMFEETTLSLNDLVLPIFVEEEIDDYKAVEAMPGVMRIPEKHLAREIERIANAGIRSVMTFGISHHTDETGSDAWREDGLVARMSRICKQTVPEMIVMSDTCFCEYTSHGHCGVLCEHGVDNDATLENLGKQAVVAAAAGADFIAPSAAMDGQVQAIRQALDAAGFKDTAIMSYSTKFASSFYGPFREAAGSALKGDRKSYQMNPMNRREAIRESLLDEAQGADCLMVKPAGAYLDIVRELRERTELPIGAYQVSGEYAMIKFAALAGAIDEEKVVLESLGSIKRAGADLIQSYFALDLAEKKILR,0.00623 ± 0.0017
5,hemB F310A (protein) MTDLIQRPRRLRKSPALRAMFEETTLSLNDLVLPIFVEEEIDDYKAVEAMPGVMRIPEKHLAREIERIANAGIRSVMTFGISHHTDETGSDAWREDGLVARMSRICKQTVPEMIVMSDTCFCEYTSHGHCGVLCEHGVDNDATLENLGKQAVVAAAAGADFIAPSAAMDGQVQAIRQALDAAGFKDTAIMSYSTKFASSFYGPFREAAGSALKGDRKSYQMNPMNRREAIRESLLDEAQGADCLMVKPAGAYLDIVRELRERTELPIGAYQVSGEYAMIKFAALAGAIDEEKVVLESLGSIKRAGADLIASYFALDLAEKKILR,0.0521 ± 0.072
6,hemB F310D (protein) MTDLIQRPRRLRKSPALRAMFEETTLSLNDLVLPIFVEEEIDDYKAVEAMPGVMRIPEKHLAREIERIANAGIRSVMTFGISHHTDETGSDAWREDGLVARMSRICKQTVPEMIVMSDTCFCEYTSHGHCGVLCEHGVDNDATLENLGKQAVVAAAAGADFIAPSAAMDGQVQAIRQALDAAGFKDTAIMSYSTKFASSFYGPFREAAGSALKGDRKSYQMNPMNRREAIRESLLDEAQGADCLMVKPAGAYLDIVRELRERTELPIGAYQVSGEYAMIKFAALAGAIDEEKVVLESLGSIKRAGADLIDSYFALDLAEKKILR,0.00785 ± 0.0042
7,hemB I309Q (protein) MTDLIQRPRRLRKSPALRAMFEETTLSLNDLVLPIFVEEEIDDYKAVEAMPGVMRIPEKHLAREIERIANAGIRSVMTFGISHHTDETGSDAWREDGLVARMSRICKQTVPEMIVMSDTCFCEYTSHGHCGVLCEHGVDNDATLENLGKQAVVAAAAGADFIAPSAAMDGQVQAIRQALDAAGFKDTAIMSYSTKFASSFYGPFREAAGSALKGDRKSYQMNPMNRREAIRESLLDEAQGADCLMVKPAGAYLDIVRELRERTELPIGAYQVSGEYAMIKFAALAGAIDEEKVVLESLGSIKRAGADLQFSYFALDLAEKKILR,0.0621 ± 0.053
8,hemB I309D (protein) MTDLIQRPRRLRKSPALRAMFEETTLSLNDLVLPIFVEEEIDDYKAVEAMPGVMRIPEKHLAREIERIANAGIRSVMTFGISHHTDETGSDAWREDGLVARMSRICKQTVPEMIVMSDTCFCEYTSHGHCGVLCEHGVDNDATLENLGKQAVVAAAAGADFIAPSAAMDGQVQAIRQALDAAGFKDTAIMSYSTKFASSFYGPFREAAGSALKGDRKSYQMNPMNRREAIRESLLDEAQGADCLMVKPAGAYLDIVRELRERTELPIGAYQVSGEYAMIKFAALAGAIDEEKVVLESLGSIKRAGADLDFSYFALDLAEKKILR,0.068 ± 0.073
9,hemB F310W (protein) MTDLIQRPRRLRKSPALRAMFEETTLSLNDLVLPIFVEEEIDDYKAVEAMPGVMRIPEKHLAREIERIANAGIRSVMTFGISHHTDETGSDAWREDGLVARMSRICKQTVPEMIVMSDTCFCEYTSHGHCGVLCEHGVDNDATLENLGKQAVVAAAAGADFIAPSAAMDGQVQAIRQALDAAGFKDTAIMSYSTKFASSFYGPFREAAGSALKGDRKSYQMNPMNRREAIRESLLDEAQGADCLMVKPAGAYLDIVRELRERTELPIGAYQVSGEYAMIKFAALAGAIDEEKVVLESLGSIKRAGADLIWSYFALDLAEKKILR,0.0372 ± 0.019
10,hemB L244Q (protein) MTDLIQRPRRLRKSPALRAMFEETTLSLNDLVLPIFVEEEIDDYKAVEAMPGVMRIPEKHLAREIERIANAGIRSVMTFGISHHTDETGSDAWREDGLVARMSRICKQTVPEMIVMSDTCFCEYTSHGHCGVLCEHGVDNDATLENLGKQAVVAAAAGADFIAPSAAMDGQVQAIRQALDAAGFKDTAIMSYSTKFASSFYGPFREAAGSALKGDRKSYQMNPMNRREAIRESLLDEAQGADCQMVKPAGAYLDIVRELRERTELPIGAYQVSGEYAMIKFAALAGAIDEEKVVLESLGSIKRAGADLIFSYFALDLAEKKILR,0.0203 ± 0.0013
11,hemA L32Q (protein) MTLLALGINHKTAPVSLRERVSFSPDKLDQAQDSLLAQPMVQGGVVLSTCNRTELYLSVEEQDNLQEALIRWLCDYHNLNEEDLRKSLYWHQDNDAVSHLMRVASGLDSLVLGEPQILGQVKKAFADSQKGHMKASELERMFQKSFSVAKRVRTETDIGASAVSVAFAACTLARQIFESLSTVTVLLVGAGETIELVARHLREHKVQKMIIANRTRERAQILADEVGAEVIALSDIDERLREADIIISSTASPLPIIGKGMVERALKSRRNQPMLLVDIAVPRDVEPEVGKLANAYLYSVDDLQSIISHNLAQRKAAAVEAETIVAQETSEFMAWLRAQSASETIREYRSQAEQVRDELTAKALAALEQGGDAQAIMQDLAWKLTNRLIHAPTKSLQQAARDGDNERLNILRDSLGLE,95.8 [active]
12,hemD I32P (protein) MSILVTRPSPAGEELVSRLRTLGQVAWHFPLPEFSPGQQLPQLADQLAALGESDLLFALSQHAVAFAQSQLHQQDRKWPRLPDYFAIGRTTALALHTVSGQKILYPQDREISEVLLQLPELQNIAGKRALILRGNGGRELIGDTLTARGAEVTFCECYQRCAIHYDGAEEAMRWQAREVTMVVVTSGEMLQQLWSLIPQWYREHWLLHCRLLVVSERLAKLARELGWQDIKVADNADNDALLRALQ,> 145 [active]
13,hemD L56A (protein) MSILVTRPSPAGEELVSRLRTLGQVAWHFPLIEFSPGQQLPQLADQLAALGESDLAFALSQHAVAFAQSQLHQQDRKWPRLPDYFAIGRTTALALHTVSGQKILYPQDREISEVLLQLPELQNIAGKRALILRGNGGRELIGDTLTARGAEVTFCECYQRCAIHYDGAEEAMRWQAREVTMVVVTSGEMLQQLWSLIPQWYREHWLLHCRLLVVSERLAKLARELGWQDIKVADNADNDALLRALQ,< 0.0215
14,hemC L66A (protein) MLDNVLRIATRQSPLALWQAHYVKDKLMASHPGLVVELVPMVTRGDVILDTPLAKVGGKGLFVKEAEVALLENRADIAVHSMKDVPVEFPQGLGLVTICEREDPRDAFVSNNYDSLDALPAGSIVGTSSLRRQCQLAERRPDLIIRSLRGNVGTRLSKLDNGEYDAIILAVAGLKRLGLESRIRAALPPEISLPAVGQGAVGIECRLDDSRTRELLAALNHHETALRVTAERAMNTRLEGGCQVPIGSYAELIDGEIWLRALVGAPDGSQIIRGERRGAPQDAEQMGISLAEELLNNGAREILAEVYNGDAPA,> 1260 [active]
15,hemC V171Q (protein) MLDNVLRIATRQSPLALWQAHYVKDKLMASHPGLVVELVPMVTRGDVILDTPLAKVGGKGLFVKELEVALLENRADIAVHSMKDVPVEFPQGLGLVTICEREDPRDAFVSNNYDSLDALPAGSIVGTSSLRRQCQLAERRPDLIIRSLRGNVGTRLSKLDNGEYDAIILAQAGLKRLGLESRIRAALPPEISLPAVGQGAVGIECRLDDSRTRELLAALNHHETALRVTAERAMNTRLEGGCQVPIGSYAELIDGEIWLRALVGAPDGSQIIRGERRGAPQDAEQMGISLAEELLNNGAREILAEVYNGDAPA,< 0.0172
